In the BET-seq Pho4 binding data (Le et al. 2018):
Some of the results follow. The energies were worked out here from pooled read counts, against the library average; single values are noisy.

Each sequence was assayed against T1, Pho4 (S. cerevisiae) (UniProt P07270) (assay: relative binding free energy (BET-seq); higher = weaker binding). Conditions: reference: library average.
T1 sequence: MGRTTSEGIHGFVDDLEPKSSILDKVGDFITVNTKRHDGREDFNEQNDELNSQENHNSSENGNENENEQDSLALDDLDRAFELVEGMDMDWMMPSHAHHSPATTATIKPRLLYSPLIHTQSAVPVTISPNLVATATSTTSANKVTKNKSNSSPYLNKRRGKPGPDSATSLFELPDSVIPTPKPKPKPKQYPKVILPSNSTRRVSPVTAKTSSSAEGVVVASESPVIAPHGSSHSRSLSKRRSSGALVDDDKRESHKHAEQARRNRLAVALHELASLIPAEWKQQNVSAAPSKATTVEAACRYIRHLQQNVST

Relative binding free energy, -0.23 kcal/mol:
GATGGCACGTGGGTCG

Relative binding free energy, -0.09 kcal/mol:
GTAAACACGTGGGGCA
GTGTGCACGTGGTCTT
TTAGGCACGTGTGGCA

Relative binding free energy, 0.14 kcal/mol:
TGTGACACGTGACTTT
ATATCCACGTGAGGTG

Relative binding free energy, 0.16 kcal/mol:
CGCCTCACGTGTGGGG
GTCGTCACGTGTTATA
TTAGGCACGTGAGTTA
TGGGTCACGTGTTACA
AATTTCACGTGGGGTG
AAATTCACGTGTGATT
GTGGGCACGTGAGTAT
TATTACACGTGGTAGT

Relative binding free energy, 0.12 kcal/mol:
ATGTACACGTGTCGTT
TTTCTCACGTGGCGTG
CGCGTCACGTGTTTTT
TAGCGCACGTGAGTGT
AATTCCACGTGTGTTT

Relative binding free energy, 0.35 kcal/mol:
GCGGTCACGTGAAGTG

Relative binding free energy, 0.03 kcal/mol:
TACGTCACGTGGTTGT
AGCGTCACGTGGCGGC
TTTTGCACGTGTATTT
TCTTGCACGTGTAATT
ATCGACACGTGTGGTG
GGATGCACGTGGGAAG
CGTTGCACGTGTTGGA

Relative binding free energy, -0.13 kcal/mol:
GGGCCCACGTGCGGTG
TATAGCACGTGCTGGT
GTGGGCACGTGGCAGC

Relative binding free energy, -0.15 kcal/mol:
TTGGCCACGTGGGGGG
AGTACCACGTGGGGAT
GTCTGCACGTGGGGGT
GAGAGCACGTGCGGGG

Relative binding free energy, -0.21 kcal/mol:
AGGGGCACGTGGTGCG
CCTGGCACGTGGGCGG
TAGGGCACGTGCGGCA

Relative binding free energy, -0.05 kcal/mol:
TAGTGCACGTGTATGT
CGAGGCACGTGCGATG
TGCGGCACGTGATTTG

Relative binding free energy, 0.05 kcal/mol:
TTTGGCACGTGTGGTC
TGTGACACGTGATAGG
GCGTCCACGTGTTGGG
TGGCTCACGTGGGGGT
GATTGCACGTGTCGTG
AGATTCACGTGGGCTG

Relative binding free energy, 0.26 kcal/mol:
TTTATCACGTGTGACA
TTGTGCACGTGAAGAA

Relative binding free energy, 0.02 kcal/mol:
CGGTGCACGTGTGTAC
CCTTACACGTGGGGGG
TTGCACACGTGGTGAG
TTTGGCACGTGTTACT
AGTATCACGTGCTATG
TACGGCACGTGTTTAT
TTGGGCACGTGTGTTC
TGTTGCACGTGCCGTA

Relative binding free energy, 0.04 kcal/mol:
TTTTGCACGTGGTTGG
ATATACACGTGGGATT
TTCGGCACGTGTCATG
GTGGTCACGTGTGCAG

Relative binding free energy, -0.2 kcal/mol:
TGAGACACGTGGGTCG

Relative binding free energy, 0.22 kcal/mol:
GTTCTCACGTGTATAT
AGTTTCACGTGGTTGT
TGTCTCACGTGATTAT
TTTTGCACGTGAGTCA
AGGATCACGTGGATTT

Relative binding free energy, 0.45 kcal/mol:
AGGATCACGTGAGAGG

Relative binding free energy, 0.3 kcal/mol:
TGTTTCACGTGGCGGT

Relative binding free energy, 0.17 kcal/mol:
CTGATCACGTGGTCGG
CGGACCACGTGTTGGT
AGCTTCACGTGGGTTG

Relative binding free energy, 0.06 kcal/mol:
ATACGCACGTGAAGGT
ATTGGCACGTGATAGG

Relative binding free energy, -0.31 kcal/mol:
CTGGGCACGTGGGAGC

Relative binding free energy, 0.42 kcal/mol:
TGCTTCACGTGAAAGG
GTTGTCACGTGAATAA

Relative binding free energy, 0.1 kcal/mol:
TTTGTCACGTGCTTAG
AAAGGCACGTGAGGGT
TATAACACGTGTGAAT
ATGGGCACGTGAGTCT
TGAGTCACGTGCTGCG
TTGTGCACGTGACTAT
GGCGACACGTGTGGGG
TTGTCCACGTGTGGTT

Relative binding free energy, 0.13 kcal/mol:
AAGGTCACGTGTTTAA
GCTATCACGTGGTGAT
ATTTTCACGTGGGGTA

Relative binding free energy, -0.11 kcal/mol:
CTAGCCACGTGGGTTG

Relative binding free energy, 0.29 kcal/mol:
GGTATCACGTGAGAAT

Relative binding free energy, 0.44 kcal/mol:
AGAGACACGTGAGGAG

Relative binding free energy, 0.27 kcal/mol:
TGTTTCACGTGTTTTG
GGATTCACGTGGTAGT
TCGTTCACGTGTGCGT
CGTTACACGTGACGGT
TTTTTCACGTGTGTTT
ATGTTCACGTGTGTAG

Relative binding free energy, 0.11 kcal/mol:
GGGGACACGTGGATTG
TTAGTCACGTGGATTG
TTGGTCACGTGCATAG
AGTTCCACGTGGAGGA
TCGAGCACGTGATTGG
CGGGACACGTGTGAGT

Relative binding free energy, -0.12 kcal/mol:
GTTCGCACGTGGTAGG
CTCTGCACGTGGGTTG
TGCAGCACGTGGATGG
TAGAGCACGTGCGGGG
ATGGGCACGTGTAATT

Relative binding free energy, -0.29 kcal/mol:
GGGGGCACGTGCGCGC
GGGGGCACGTGCCGGT

Relative binding free energy, -0.17 kcal/mol:
GAAGGCACGTGCTAGG
TTAGGCACGTGCGTGT
CTGGGCACGTGTTGTG

Relative binding free energy, 0.09 kcal/mol:
GGAGGCACGTGTTAGC
CGGGTCACGTGGTTTG
AATGTCACGTGCGTAG
ATGTTCACGTGGGGTC
TGTTTCACGTGGCGCA
TAGCACACGTGTGTGT

Relative binding free energy, 0.19 kcal/mol:
AAAGTCACGTGGAGAT
ATGTTCACGTGGGTAA
TTAATCACGTGTCATA
AAGGACACGTGTGAAG

Relative binding free energy, -0.19 kcal/mol:
TTGCGCACGTGGCGGT
TAGAGCACGTGCTGGT

Relative binding free energy, 0.47 kcal/mol:
CGGGTCACGTGAGATT

Relative binding free energy, 0.08 kcal/mol:
TTCGTCACGTGATTGA
ATCGTCACGTGTGAGT
CGTTGCACGTGACGTG
CTGGTCACGTGTGAAG
GACATCACGTGGTGTG
AGGGACACGTGATTGT

Relative binding free energy, 0.34 kcal/mol:
GTTCTCACGTGTGGAG
ATTTTCACGTGAACTG

Relative binding free energy, -0.28 kcal/mol:
ATTGGCACGTGCAGTA

Relative binding free energy, 0.31 kcal/mol:
ATTTTCACGTGTGGCT
GGGTGCACGTGAAAGT
TCATTCACGTGAGAGG
AGTGTCACGTGATGGC

Relative binding free energy, 0.18 kcal/mol:
ACGAGCACGTGAGGGT
ATTTTCACGTGCAGGG
AAATTCACGTGGTGGT
ATATTCACGTGGGCGG
AATGTCACGTGGAATT
CGGGTCACGTGGACAG
TATTTCACGTGTGCCT
GAGGTCACGTGTTTGG

Relative binding free energy, 0.37 kcal/mol:
TATATCACGTGAGAGT
ATCTTCACGTGAGTAT

Relative binding free energy, 0.41 kcal/mol:
GATATCACGTGAATGT

Relative binding free energy, -0.06 kcal/mol:
TGCGTCACGTGTGCGG
ATACGCACGTGTGTGT
GTGTGCACGTGGTCGT
TGCGGCACGTGGTTCA
TAGGACACGTGGGTTC
AATGTCACGTGGTATC
GGCGGCACGTGTTGGA
GGATCCACGTGGGTAG

Relative binding free energy, 0.2 kcal/mol:
TTGCTCACGTGTTTTA
GGTTTCACGTGCGGCT
ACTATCACGTGATGGG

Relative binding free energy, 0.25 kcal/mol:
TGTTACACGTGATCGG
TTCATCACGTGTGGGC

Relative binding free energy, 0.32 kcal/mol:
CATTGCACGTGAATTT
AGATTCACGTGTTGGG
TTTCTCACGTGGACTT

Relative binding free energy, 0.07 kcal/mol:
AGGGTCACGTGGATTA
TGTTCCACGTGTTTTT
CGAGTCACGTGGAGTG

Relative binding free energy, 0.15 kcal/mol:
TTTACCACGTGTTGAG
GAAATCACGTGGTTTG
TTCATCACGTGGAGTA
GGTTGCACGTGAATGC
TGTTACACGTGTGCCG
AGGGTCACGTGTTCCG
TTTGACACGTGACTAT
CTGCGCACGTGATTGT

Relative binding free energy, -0.08 kcal/mol:
GTGGACACGTGCGCGT
TTGGACACGTGGGGAC

Relative binding free energy, -0.18 kcal/mol:
GTGAGCACGTGGTGAA
TGTGCCACGTGGGGTT
ATGTACACGTGGCTTG

Relative binding free energy, 0.01 kcal/mol:
GGCCACACGTGGGGGA
GGTTGCACGTGCATGA
TATGTCACGTGGTATC
GGTCGCACGTGTCGTT

Relative binding free energy, -0.01 kcal/mol:
GTGGGCACGTGTGGTA
AGGGGCACGTGACAGT
GGCAGCACGTGATGGG
AAACACACGTGGTGTG
TTGGGCACGTGTTGCA
TTTTGCACGTGTTTTA
AATGGCACGTGCTAGT

Relative binding free energy, -0.16 kcal/mol:
ATTCGCACGTGGATTG
GGGGGCACGTGGTCGA

Relative binding free energy, 0.23 kcal/mol:
AGTTGCACGTGAGCGG
AGGATCACGTGGATAA
TCTCTCACGTGGGTGT

Relative binding free energy, 0.55 kcal/mol:
TTCTTCACGTGAAAGG

Relative binding free energy, -0.02 kcal/mol:
TAAAGCACGTGCCGGG
AGTTACACGTGGTGTG
TTGTGCACGTGCAGTC
TGTGGCACGTGTCGAG

Relative binding free energy, -0.14 kcal/mol:
ATGAGCACGTGTTTAA
AGTGGCACGTGTCGAG
CGTTGCACGTGGTGCA
GTGGCCACGTGGGCTA

Relative binding free energy, 0.33 kcal/mol:
TGATTCACGTGGTAAA
CGGTTCACGTGCTGTT

Relative binding free energy, -0.03 kcal/mol:
CTGGGCACGTGTACGG
TTGTACACGTGGGATA
TTGTACACGTGCGTGG
ATAAGCACGTGATTAT
AATCGCACGTGCGGGG

Relative binding free energy, 0.57 kcal/mol:
TAGATCACGTGAGGCA

Relative binding free energy, -0.1 kcal/mol:
CGCGGCACGTGGAGTG
GGGTCCACGTGGGCGT
TTAGGCACGTGGATAT

Relative binding free energy, 0 kcal/mol:
TGCGTCACGTGGCTGG
GGGTACACGTGGGAGA
TATTACACGTGGCTGT

Relative binding free energy, 0.24 kcal/mol:
CAGTTCACGTGGATGG
ATGGTCACGTGGAACT

Relative binding free energy, -0.22 kcal/mol:
CAAGGCACGTGGGTCG
TTAGGCACGTGTCTTG
ATATGCACGTGGGCAG

Relative binding free energy, -0.07 kcal/mol:
ATTGTCACGTGGCTCG
TTTGGCACGTGACGAT

Relative binding free energy, 0.4 kcal/mol:
TGGCTCACGTGTTTAT
GGATTCACGTGATGGC
TCGTTCACGTGATCGG
